Values joined by “and” are separate entries in the source; they are usually repeats but may differ in a detail not shown here. Equal entries are not always repeated. The campaign covered roughly 16,000 compounds. About 40 (0.2%) were called active. Not shown: some 1% with an inconclusive outcome. The call rests on the fitted dose curve; in most records, active means well fitted activation curve with a large enough effect; inconclusive means small, poorly fitted or top-dose-only effect, or another doubt; inactive means no such curve, though single readings can be large or run the other way. The list shows a part of the results.
Each molecule was assayed against Rap guanine nucleotide exchange factor 4 (Homo sapiens) (UniProt Q8WZA2) (assay: Validation qHTS for agonist of cAMP-regulated guanine nucleotide exchange factor 4 (EPAC2)). Conditions: EPAC2 Rap1B BODIPY-GDP exchange, fluorescence; activation: active compounds read high.
Summary of the method: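 Fluorescent exchange assay: 100 nM EPAC2 with 250 nM RAP1B-BODIPY-GDP and 50 uM GDP; compound added, 5 min at room temperature, then read (ex 480/em 540 nm) every 5 min for 30 min. Normalized to 6.5 mM cAMP agonist control.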
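Further: exchange makes BODIPY-GDP fluorescence drop when released from Rap1B; series mostly up to about 150 µM.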
On the % scale 0 is the no-effect control and ±100 the full control effect.

Chain of UniProt Q8WZA2 (Q8WZA2 whole entry, looked up): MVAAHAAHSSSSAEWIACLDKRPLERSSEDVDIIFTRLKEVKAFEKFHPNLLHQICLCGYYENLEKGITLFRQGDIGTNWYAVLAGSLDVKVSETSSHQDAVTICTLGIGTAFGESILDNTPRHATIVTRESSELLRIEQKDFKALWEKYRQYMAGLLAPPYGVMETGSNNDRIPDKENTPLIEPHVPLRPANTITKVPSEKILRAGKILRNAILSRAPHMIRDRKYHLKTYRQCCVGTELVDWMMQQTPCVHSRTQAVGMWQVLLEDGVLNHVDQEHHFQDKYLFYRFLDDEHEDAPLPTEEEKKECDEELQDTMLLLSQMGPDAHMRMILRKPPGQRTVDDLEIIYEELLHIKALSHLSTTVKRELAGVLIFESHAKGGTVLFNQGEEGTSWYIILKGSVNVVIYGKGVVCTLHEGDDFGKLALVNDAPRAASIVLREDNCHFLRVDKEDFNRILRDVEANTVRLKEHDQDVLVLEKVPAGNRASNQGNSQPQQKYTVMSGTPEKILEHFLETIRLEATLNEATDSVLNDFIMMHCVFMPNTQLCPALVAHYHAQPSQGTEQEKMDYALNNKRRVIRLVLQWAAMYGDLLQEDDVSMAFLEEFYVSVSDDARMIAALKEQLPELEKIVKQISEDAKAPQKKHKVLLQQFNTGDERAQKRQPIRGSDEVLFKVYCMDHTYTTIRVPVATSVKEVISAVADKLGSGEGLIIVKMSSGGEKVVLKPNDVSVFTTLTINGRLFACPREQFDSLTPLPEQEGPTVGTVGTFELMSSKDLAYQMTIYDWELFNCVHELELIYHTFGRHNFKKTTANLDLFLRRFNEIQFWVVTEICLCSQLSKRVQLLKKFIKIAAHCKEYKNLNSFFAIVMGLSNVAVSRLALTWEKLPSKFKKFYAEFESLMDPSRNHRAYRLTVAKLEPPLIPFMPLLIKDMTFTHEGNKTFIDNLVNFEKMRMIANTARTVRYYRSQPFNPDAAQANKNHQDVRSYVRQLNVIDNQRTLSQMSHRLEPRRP

activation, inactive:
O=C1OC(c2ccc(O)cc2)(c2ccc(O)cc2)c2ccccc21 2.69% and -5.77%
O=S1(=O)CCOCCCN1Cc1ccc(F)cc1 -5.75%
COc1ccc2c(C)cc(=O)oc2c1 -2.12%
C=C[C@@H]1c2cc(C)ccc2N(S(=O)(=O)c2ccc(C)cc2)[C@H](c2ccc(C(C)(F)F)cc2)C1(C#N)C#N -11.1%
COC(=O)N1CCC2(CCCN(C(=O)Nc3cccc(C#N)c3)C2)CC1 -4.53%
CCCc1ncc(C[n+]2ccccc2C)c(N)n1 -1.43% and -14.7%
N#Cc1cccc(NC(=O)N2CC[C@@]3(CCCNC3)C2)c1 8.96%
CCCCCCCCCCCCCCCC(=O)NCC(COP(=O)([O-])OCC[N+](C)(C)C)OCC (stereo not given) -69.1%
CS(=O)(=O)N1CCC2(CC1)CN(Cc1cc(C(F)(F)F)cc(C(F)(F)F)c1)C2 -12.4%
COc1ncc2nc(-c3cn(C)c4ccccc34)c(=O)n(-c3ccccc3)c2n1 10.4%
Cc1nc2cnc(N(C)C)nc2n(-c2ccccc2)c1=O -2.69%
CC1(C)C(=O)C2C[C@]3(O)C4=CC(=O)OC(c5ccoc5)[C@]4(C)CCC3[C@](C)(C2=O)C1CC(=O)O (stereo not given in full) 10.9%
CO/N=C(\C(=O)N[C@@H]1C(=O)N2C(C(=O)O)=CCS[C@H]12)c1csc(N)n1 1.75%
O=C1NC(=O)C(c2ccccc2[N+](=O)[O-])=C1Nc1ccc(O)c(Cl)c1 -18.9% and 0.687% and 17.2%
CC(=O)c1ccccc1-c1ccc2c(c1)CC(CNC(=O)c1cc(C)on1)O2 (stereo not given) -28.1%
CC(C)Cc1nc2cc(NS(=O)(=O)N(C)C)cc(C(=O)N3CCc4sccc4C3)c2n1C -1.35%
Cc1c(C(=O)NCc2ccc(F)cc2)sc2ncnc(NCC3CCCO3)c12 (stereo not given) -21.4%
O=C(O)[C@H]1CCCN1 -0.0689%
Cc1ncc2c(c1CNC(=O)c1ccc3c(c1)OCO3)CCN(C(=O)c1coc3c1C(=O)CCC3)C2 -2.1%
CCCCCCCCCCCCCCCC[n+]1ccc(/C=C/c2c[nH]c3ccccc23)c2ccccc21 -69.4%
N#C/C(=C\c1ccc(O)c(O)c1)C(=O)Nc1ccccc1 9.69% and -18.8%
COc1ccc([N+](=O)[O-])c2c1CCN2C(=O)CC[C@H](N)C(=O)O -5.13%
Cc1ccccc1C(=O)N1CCc2c(cnc(C)c2CNC(=O)c2ccc3c(c2)OCO3)C1 -7.83%
CCN(CC)Cc1ccc(Nc2ccnc3cc(Cl)ccc23)cc1O 1.42%
CN1Cc2c(C(=O)OC(C)(C)C)ncn2-c2ccsc2C1=O -1.73%
COc1cccc(N2[C@@H](CC(C)=O)c3ccccc3S2(=O)=O)c1 1.65%
CN(C)c1ncc2nc(-c3ccccc3)c(=O)n(C[C@H]3CCCO3)c2n1 -6.44%
COc1ccc(CNc2ncnc3ccc(-c4ccc(C(=O)N(C)C)cc4)cc23)c(OC)c1 -0.17%
Brc1c(Br)c(Br)c2[nH]cnc2c1Br -20.4%
c1nc(N2CCNCC2)c2cc(-c3ccoc3)ccc2n1 -0.0801%
Cc1c(Cl)cccc1Nc1ccccc1C(=O)O 4.68%
COc1ccccc1-c1nc(N(C)Cc2ccco2)c2ccccc2n1 -2.34%
Cc1cc2c(c(-c3cnccn3)c1)OC(CNC(=O)c1ccc(-n3nc(C)cc3C)cc1)C2 (stereo not given) -7.18%
CC(Oc1ccc(O)cc1)(P(=O)(O)O)P(=O)(O)O -19.5%
COc1cc(=O)n2c(c1C(=O)NCc1ccsc1)CCN(Cc1nc3ccccc3[nH]1)CC2 4.16%
CC[C@@H](C(=O)O)[C@@H]1O[C@@H]([C@@H](C)[C@H](O)[C@H](C)C(=O)[C@H](CC)[C@H]2O[C@]3(C=C[C@@H](O)[C@]4(CC[C@@](C)([C@H]5CC[C@](O)(CC)[C@H](C)O5)O4)O3)[C@H](C)C[C@@H]2C)[C@@H](C)C[C@@H]1C -13%
COc1ccccc1-c1nccc(Nc2ccc(F)cc2)n1 -14.4%
O=C(Nc1cc(C(=O)NC2CCOCC2)c2c(c1)ncn2C1CCCC1)c1ccccc1 -9.67%
COc1cc(=O)n2c(c1C(=O)N(C)Cc1cscn1)CCN(C(=O)c1ccc(C)cc1C)CC2 -3.32%
Cc1ccc(N(CC2=NCCN2)c2cccc(O)c2)cc1 -6.85% [middle of 5 runs]
O=C(NCC1Cc2cccc(-c3nccs3)c2O1)c1ccnc(Cl)c1 (stereo not given) -8.95%
O=c1c(-c2cc(F)cc(F)c2)nc2cnc(N3CCOCC3)nc2n1Cc1cccs1 -4.83%
c1coc(-c2ccccc2CN2CCOc3ccc(CN4CCOCC4)cc3C2)c1 -27.1%
Cc1c(C(=O)N2CCCC2)sc2ncnc(NCCc3ccccn3)c12 -11.2%
O=C1CCN(Cc2cccn2-c2ccccn2)CCN1Cc1ccccc1C(F)(F)F -1.02%
CNc1ncnc2c1ncn2[C@H]1C[C@H](O)[C@@H](CO)O1 6.03%
COc1ccc2[nH]cc(CCNC(=O)C3CC3)c2c1 -4.16%
C=C[C@@H]1c2cc(C)ccc2N(S(=O)(=O)c2ccc(C)cc2)[C@H](c2ccc(OC(C)=O)cc2)C1(C#N)C#N -9.82%
COC(=O)CCCC[C@@H]1SC[C@@H]2NC(=O)N[C@@H]21 2.32%
COc1cc(OC)c(OC)cc1/C=c1\[nH]c(=O)/c(=C/c2cc(OC)c(OC)cc2OC)[nH]c1=O -14.9%
Cc1ccccc1-c1ccc2ncnc(-n3ccnc3)c2c1 -9.37%
COC(=O)[C@@]1(C)CCC[C@@]2(C)c3ccc(O)c(C(C)C)c3CCC21 (stereo not given in full) -28.7%
CC#CCC(C)[C@H](O)/C=C/[C@@H]1[C@H]2c3cccc(CCCC(=O)O)c3O[C@H]2C[C@H]1O (stereo not given in full) 11.9%
CCc1ccc(CCOc2ccc(CC3SC(=O)NC3=O)cc2)nc1 (stereo not given) 10.1% and -0.481%
CNC1C(O)[C@@H]2OC(O[C@@H]3C(O)C(O)C(N)C[C@H]3N)C(N)C[C@H]2O[C@H]1O[C@@H]1OC(CO)C(N)C(O)C1O (stereo not given in full) -0.0486%
COC(=O)[C@H]1[C@H]2C[C@@H]3c4[nH]c5cc(OC)ccc5c4CCN3C[C@H]2C[C@H](OC)[C@@H]1OC -18.5%
COc1ccc(OC)c(-c2ccnc(-n3ncc(C(=O)N(C)CCO)c3C3CC3)n2)c1 -2.72%
CC(C)(C)c1ccc(/C=C/C(=O)Nc2ccc3c(c2)OCCO3)cc1 -30.8%
Cc1c(C(C)C)c(=O)n(-c2ccccc2)n1C 1.7%
Cc1ccc(CNc2nc(CN3CCCCC3c3cccnc3)nc3ccccc23)o1 (stereo not given) -7.59%
CNC(=O)[C@H]1O[C@@H](n2cnc3c(N)ncnc32)[C@H](O)[C@@H]1O -6.23%
Cc1noc(C)c1C(=O)N1CCC[C@@]2(CCN(c3ccccn3)C2)C1 -4.38%
COCCn1c(=O)c(-c2cn(C)c3ccccc23)nc2cnc(N3CCNCC3)nc21 1.44%
CC(C)(CNC(=O)c1cnn(-c2ncc3c(n2)-c2ccccc2CCC3)c1C1CC1)N1CCOCC1 -10.6%
COc1cc(=O)n2c(c1C(=O)N(C)Cc1nccs1)CCN(Cc1ccc(Cl)cc1)CC2 2.99%
NCCCCC(=O)O -7.11% and -11.4%
c1ccc(CC2=NCCN2)cc1 11.5% and 8.53%
CC(=O)OC1CC2C(C)(C)C(O)CC[C@@]2(C)C2CC[C@@]3(C)C(c4ccoc4)OC(=O)C4OC43[C@]12C (stereo not given in full) -9.03%
C/C=C(\C)C(=O)OC1C(OC(=O)C2(C)OC2C)c2cc3ccc(=O)oc3cc2OC1(C)C (stereo not given) -24.9%
O=C(c1ccncc1)N1CCC2(CCCN(c3ncccn3)C2)CC1 -2.5%
OCCN1CCN(CCCN2c3ccccc3Sc3ccc(C(F)(F)F)cc32)CC1 -15.7% and -80.7%
CC(C)(Oc1ccc(CCNC(=O)c2ccc(Cl)cc2)cc1)C(=O)O -5.42% [middle of 5 runs]
Cc1cccnc1-c1cccc2c1OC(CNC(=O)C1CCCc3c1[nH]c1ccccc31)C2 (stereo not given) -0.76%
CCCCCCCCCCCCCC(=O)N[C@H](C)[C@@H](O)c1ccccc1 4.75%
CC(=O)OCC1OC(n2cnc3c(Cl)nc(Cl)nc32)C(OC(C)=O)C1OC(C)=O (stereo not given) -11.2%
CC(CCC(=O)O)C1CCC2C3C(O)C[C@@H]4CC(O)CC[C@@]4(C)C3CC(O)[C@]12C (stereo not given in full) -16.6%
COc1ccc(S[C@@H](CCN2CC[C@H](O)CCC2=O)c2ccccc2)cc1 -20%
CC(C)C[C@@H](CO)N1CCN(Cc2ccc(O)cc2)CCC1=O -4.35%
COCc1c(C(=O)N2CCC(N(C)C)C2)cnn1-c1ncc2c(n1)-c1ccccc1CCC2 (stereo not given) -10.6%
COc1cccc(Nc2ncc3nc(CCc4ccccc4)c(=O)n(C4CC4)c3n2)c1 -2.12%
